Some of the results follow.
Experiments:
HSkMC = human skeletal muscle cells; experiment: cytotoxicity call (relative viability < 0.9); details: 10 µM
HepG2 = experiment: cytotoxicity call (relative viability < 0.9); details: 10 µM
S. aureus RN4220 = experiment: growth inhibition call (relative growth <= 0.2); details: 50 µM

SMILES	cytotoxicity call (HSkMC)	cytotoxicity call (HepG2)	growth inhibition call (S. aureus RN4220)
Cc1ccnc(N2CCNCC2)c1	inactive	inactive	inactive
C[C@]12CC[C@H](Cl)C[C@@H]1CC[C@@H]1[C@@H]2CC[C@]2(C)C(=O)CC[C@@H]12	inactive	inactive	inactive
NCCN1CCN(c2ccc(F)cc2)CC1	inactive	inactive	inactive
O=C(O)CNCP(=O)(O)O	inactive	inactive	inactive
C=C1[C@@H](C)[C@H]2[C@H](Cc3ccccc3)NC(=O)[C@]23[C@H](OC(C)=O)/C=C/[C@](C)(O)C(=O)[C@@H](C)C/C=C/[C@H]3[C@@H]1O	active	active	inactive
CC1=C2CC3C(CC=C4CC(O)CCC43C)C2CCC12OC1CC(C)CNC1C2C (configuration not stated)	inactive	inactive	inactive
COCC(=O)N[C@@H]1[C@@H]2CNC[C@@H]21	inactive	inactive	inactive
COC(=O)[C@@H]1[C@@H](CO)[C@@H]2Cn3c(ccc(C4=CCCC4)c3=O)[C@H]1N2S(=O)(=O)c1cn(C)cn1	inactive	inactive	inactive
COc1ccc2c(c1)C[C@H](N)C2	inactive	inactive	inactive
N#CN1CCCC1	inactive	inactive	inactive
O=C1NCc2cnnn2-c2ccccc21	inactive	inactive	inactive
N#CC(c1ccccc1)c1ccccc1	inactive	inactive	inactive
CC(=O)OCC1=C2C(=O)[O][Zn][O]C(=O)[C@@H](N)CCCC(=O)N[C@@H]3C(=O)N2[C@@H]3SC1	inactive	inactive	inactive
CC(C)CC(CN)CC(=O)O (configuration not stated)	inactive	inactive	inactive
CC(C)N(CCC(C(N)=O)(c1ccccc1)c1ccccn1)C(C)C.O=P(O)(O)O (configuration not stated)	inactive	inactive	inactive
C=CC1CN2CCC1CC2C(O)c1ccnc2ccccc12 (configuration not stated)	inactive	inactive	inactive
CN1CC(=O)N(c2cccnc2)C[C@]12CCNC2	inactive	inactive	inactive
O/N=C1\CN2CCC1CC2	inactive	inactive	inactive
N#Cc1nn(-c2c(Cl)cc(C(F)(F)F)cc2Cl)c(N)c1S(=O)C(F)(F)F (configuration not stated)	inactive	active	inactive
CN1C(=O)N(C)C2C1N(C)C(=O)N2C (configuration not stated)	inactive	inactive	inactive
NC[C@@H]1CCCN2CCCC[C@H]12	inactive	inactive	inactive

SMILES	cytotoxicity call (HSkMC)	cytotoxicity call (HepG2)	growth inhibition call (S. aureus RN4220)
COc1ccc([C@H]2CC(=O)N3CCNC[C@@H]23)cc1	inactive	inactive	inactive
Cl.Clc1ccc(C(OCCN2CCCCC2)c2ccccc2)cc1 (configuration not stated)	inactive	active	inactive
OCCN(CCO)CCO	inactive	inactive	inactive
NCCc1cccc(O)c1	inactive	inactive	inactive
CC(C)c1cc2c(c(O)c1O)C1(C(=O)O)CCCC(C)(C)C1CC2 (configuration not stated)	inactive	inactive	inactive
Cl.NCC(O)c1ccc(O)cc1 (configuration not stated)	inactive	inactive	inactive
c1cncc(N2CCNCC2)c1	inactive	inactive	inactive
O=C(O)C=CC(=O)O.c1ccc2nc(N3CCNCC3)ccc2c1	inactive	active	inactive
CNC(=O)Oc1ccccc1OC(C)C	inactive	inactive	inactive
COc1cc(C=O)cc(OC)c1OC	inactive	inactive	inactive
CC[C@@H](C)C(=O)O[C@H]1[C@H](O)[C@H]2[C@@H](CN3C[C@@H](C)CC[C@@H]3[C@@]2(C)O)[C@H]2C[C@]34O[C@]5(O)[C@@H](OC(=O)[C@@](C)(O)CC)CC[C@@]3(C)[C@@H]5[C@@H](OC(C)=O)[C@@H](OC(C)=O)[C@@H]4[C@@]21O	inactive	inactive	inactive
CO[C@H]1[C@@H](O)C[C@@H](O[C@H]2[C@@H](O)C[C@@H](O[C@H]3[C@@H](O)C[C@@H](O[C@H]4CC[C@@]5(C)[C@@H](CC[C@H]6[C@@H]5C[C@@H](O)[C@@]5(C)[C@H](C7=CC(=O)OC7)CC[C@@]65O)C4)O[C@@H]3C)O[C@@H]2C)O[C@@H]1C	active	active	inactive
COc1cc(OC)c(OC)cc1C=O	inactive	active	inactive
CCOc1ccc(N2CCNCC2)nn1	inactive	inactive	inactive
CC(C)=CCCC1(C)C=Cc2c(O)c3c(c(CC=C(C)C)c2O1)OC12C(=CC4CC1C(C)(C)OC2(CC=C(C)C(=O)O)C4=O)C3=O (configuration not stated)	active	active	inactive
COc1ccc(C[C@@H](N)c2ccc(C)cn2)cc1OC	inactive	inactive	inactive
CCCCCCCCCc1ccc(O)cc1	active	active	inactive
C[C@@H]1CN([C@H](C)CO)C(=O)c2c(c3ccccc3n2C)-c2ccccc2CO[C@H]1CN(C)C(=O)Oc1ccccc1	inactive	inactive	inactive
CN1C[C@H](C(=O)N[C@]2(C)O[C@@]3(O)[C@@H]4CCCN4C(=O)[C@H](Cc4ccccc4)N3C2=O)C=C2c3cccc4[nH]cc(c34)C[C@H]21	inactive	inactive	inactive
CCCCOC(=O)c1ccccc1C(=O)OCCCC	inactive	active	inactive
COC(=O)[C@@H]1[C@@H](CO)[C@@H]2Cn3c(cccc3=O)[C@H]1N2C(=O)C1CC1	inactive	inactive	inactive

SMILES	cytotoxicity call (HSkMC)	cytotoxicity call (HepG2)	growth inhibition call (S. aureus RN4220)
CC(C)(C)C(O)(CCc1ccc(Cl)cc1)Cn1cncn1 (configuration not stated)	inactive	inactive	inactive
COCCCNC(=O)[C@@]1(Cc2ccccc2CN=[N+]=[N-])N=C(c2ccc(OCCCO)cc2)O[C@H]1c1ccccc1CN=[N+]=[N-]	inactive	active	inactive
CN(C)C(=O)CN1CCN(C)C(=O)[C@]12CCN(c1ncccn1)C2	inactive	inactive	inactive
CC1=C2C(=COC(C)C2C)C(O)=C(C(=O)O)C1=O (configuration not stated)	inactive	inactive	inactive
N[C@@H](Cc1ccccc1)c1ccc2c(c1)OCCO2	inactive	inactive	inactive
N[C@@H](C(=O)O)c1cc(=O)[nH]o1	inactive	inactive	inactive
COc1cc2c(cc1OC)C13CCN4CC5=CCOC6CC(=O)N2C1C6C5CC43 (configuration not stated)	inactive	inactive	inactive
N=C(N)/N=C(\N)Nc1ccc(Cl)cc1	inactive	inactive	inactive
CCC1(CC)C(=O)NC(=O)NC1=O	inactive	inactive	inactive
C[C@H](CO)N1C[C@H](C)[C@H](CN(C)C(=O)Oc2cccc3ccccc23)OCc2cnnn2CCCC1=O	inactive	inactive	inactive
CNCCc1ccc(O)c(O)c1	inactive	inactive	inactive
CC=C1CC(C)C(O)(CO)C(=O)OCC2=CCN3CCC(OC1=O)C23 (configuration not stated)	inactive	inactive	inactive
CC1OC(OC2CCC3(C=O)C4CCC5(C)C(C6=CC(=O)OC6)CCC5(O)C4CCC3(O)C2)C(O)C(O)C1O (configuration not stated)	active	active	inactive
CNC(=O)[C@H]1Cn2ccnc2C2(CCNCC2)O1	inactive	inactive	inactive
CS(=O)(=O)C1C[C@H]2CC[C@@H](C1)N2 (some centres not stated)	inactive	inactive	inactive
COC(=O)[C@@H](N)CCCNC(N)=N[N+](=O)[O-]	inactive	inactive	inactive
C1CO[C@@]2(C1)CCNC2	inactive	inactive	inactive
C=CCOC(=O)[C@@H]1[C@H](C(=O)OC)N(C)[C@@H](c2ccccc2)[C@]12C(=O)Nc1ccc(I)cc12	inactive	inactive	inactive
CC(=O)OCC1=C(C(=O)O)N2C(=O)[C@@H](N)[C@H]2SC1	inactive	inactive	inactive
CCCNC(=O)C1=NO[C@]2(CCNC2)C1	inactive	inactive	inactive
O=C([O-])c1ccccc1-c1c2cc(Br)c(=O)cc-2oc2[c]([Hg][OH])c([O-])c(Br)cc12.[Na+].[Na+]	inactive	inactive	inactive

SMILES	cytotoxicity call (HSkMC)	cytotoxicity call (HepG2)	growth inhibition call (S. aureus RN4220)
CN1C(=O)NC(=O)/C(=C\C=C\c2ccco2)C1=O	inactive	inactive	inactive
COc1ccc(CCN)cc1O	inactive	inactive	inactive
O=C(C1CCCC1)N1C[C@@H]2CCNC[C@@H]21	inactive	inactive	inactive
O=C(NC(=O)c1c(F)cccc1F)Nc1cc(Cl)c(OC(F)(F)C(F)C(F)(F)F)cc1Cl (configuration not stated)	inactive	active	inactive
COC(=O)C[C@@H]1CC[C@@H]2NC[C@@H](O)COC[C@H]2O1	inactive	inactive	inactive
O=C([O-])CCCO.[Na+]	inactive	inactive	inactive
COc1cc(C(=O)O)cc(OC)c1OC	inactive	inactive	inactive
CN[C@@H](C)Cc1cnccn1	inactive	inactive	inactive
O=C1CCCC2C3CCCN4CCCC(CN12)C34 (configuration not stated)	inactive	inactive	inactive
O=C(O)c1cc(Cl)ccc1Cl	inactive	inactive	inactive
C[C@@H]1NC[C@@H]2CCCN2C1=O	inactive	inactive	inactive
CC(=O)NCCSS(C)(=O)=O.CN(C)c1ccc2c(-c3ccccc3C(=O)O)c3ccc(N(C)C)cc3[o+]c2c1	inactive	inactive	inactive
Cc1cc(N(C)C)ccc1C[C@@H](C)N	inactive	inactive	inactive
COC(=O)[C@@H]1C(=O)NC[C@H]1C(C)C	inactive	inactive	inactive
NNc1ccn([C@@H]2O[C@H](CO)[C@@H](O)[C@H]2O)c(=O)n1	inactive	inactive	inactive
Cc1cccc2[nH]c(CCN)nc12	inactive	inactive	inactive
Cc1ccc(N=CN(C)C=Nc2ccc(C)cc2C)c(C)c1	inactive	inactive	inactive
O=c1[nH]c(=O)n(Cl)c(=O)n1Cl	inactive	inactive	inactive
COP(=O)(OC)C(O)C(Cl)(Cl)Cl (configuration not stated)	inactive	inactive	inactive
NCC(=O)Nc1ccc(Br)cc1C(=O)c1ccccc1	inactive	inactive	inactive
COc1ccc(OC)c(C(O)C(C)N)c1.Cl (configuration not stated)	inactive	active	inactive

Source: the antibiotic and cytotoxicity screens of Wong et al. (2023)
